Results as given in the supplement of paper PMC4604168 (melanoma cell lines).
The list shows a part of the results. Most values come without repeats; read them as rough.

Legend:
Assay in all cases: cell count relative to DMSO control; melanoma cells; higher = more viable cells
Settings in all cases: library dose: low library concentration; 72 h
COLO792 = tested on: COLO792
COLO800 = tested on: COLO800
COLO829 = tested on: COLO829
G361 = tested on: G361
IPC-298 = tested on: IPC-298
IST-MEL1 = tested on: IST-MEL1
LB2518-MEL = tested on: LB2518-MEL
LOXIMVI = tested on: LOXIMVI
MEL-HO = tested on: MEL-HO
MZ2-MEL = tested on: MZ2-MEL
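Also: cell number obtained by counting DAPI-stained nuclei in high-throughput microscope images with image analysis software, screen run in 1,536-well plates.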

SMILES: COc1cc2ncnc(Nc3ccc(Oc4ccccc4)cc3)c2cc1OC + O=C(O)C(=O)Nc1sc2c(c1C(=O)O)CCNC2 [TCS401] (first compound 2 µM, partner dose 1.66667 µM)
- cell count (COLO792): 96.1%
- cell count (COLO800): 135%
- cell count (COLO829): 149%
- cell count (G361): 113%
- cell count (IPC-298): 103%
- cell count (IST-MEL1): 107%
- cell count (LB2518-MEL): 153%
- cell count (LOXIMVI): 68.7%
- cell count (MEL-HO): 89%
- cell count (MZ2-MEL): 104%

SMILES: COc1ccc2c(c1)CCC1C2CCC2(C)C(NCCCCCCN3C(=O)C=CC3=O)CCC12 (centres undefined) + CCN(CC)CCCCNc1ncc2cc(-c3cc(OC)cc(OC)c3)c(NC(=O)NC(C)(C)C)nc2n1 [PD173074] (first compound 0.4 µM, partner dose 0.1 µM)
- cell count (COLO792): 96%
- cell count (COLO800): 44.7%
- cell count (COLO829): 109%
- cell count (G361): 79.2%
- cell count (IPC-298): 94.5%
- cell count (IST-MEL1): 101%
- cell count (LB2518-MEL): 89.3%
- cell count (LOXIMVI): 65.6%
- cell count (MEL-HO): 86.3%

SMILES: N#Cc1c(O)c2c(-c3ccc(-c4ccccc4O)cc3)csc2[nH]c1=O + Cn1cc(/C=C2\C(=O)Nc3cccnc32)c2ccccc21 [GW441756] (first compound 2 µM, partner dose 0.4 µM)
- cell count (COLO792): 108%
- cell count (COLO800): 50.6%
- cell count (COLO829): 82.8%
- cell count (G361): 109%
- cell count (IPC-298): 102%
- cell count (IST-MEL1): 96.3%
- cell count (LB2518-MEL): 106%
- cell count (LOXIMVI): 110%
- cell count (MEL-HO): 89%
- cell count (MZ2-MEL): 97.6%

SMILES: COc1ccc(-c2ccc3c(N4CCOCC4)nc(N4C[C@@H](C)O[C@@H](C)C4)nc3n2)cc1CO + Cc1cc([N+](=O)[O-])ccc1NS(=O)(=O)c1cc(Cl)ccc1Cl [FH535] (first compound 0.02 µM, partner dose 1 µM)
- cell count (COLO792): 79.6%
- cell count (COLO800): 104%
- cell count (COLO829): 85%
- cell count (G361): 98.1%
- cell count (IPC-298): 90.4%
- cell count (IST-MEL1): 72.4%
- cell count (LB2518-MEL): 105%
- cell count (LOXIMVI): 84.8%
- cell count (MEL-HO): 73.3%

SMILES: O=S(=O)(c1ccccc1)N(CC(F)(F)F)c1ccc(C(O)(C(F)(F)F)C(F)(F)F)cc1 + CCCCCCCCCCCC1=C(O)C(=O)C=C(O)C1=O [Embelin] (first compound 1.4 µM, partner dose 1.2 µM)
- cell count (COLO792): 94.2%
- cell count (COLO800): 85.5%
- cell count (COLO829): 96.9%
- cell count (G361): 91%
- cell count (IPC-298): 91.3%
- cell count (IST-MEL1): 108%
- cell count (LB2518-MEL): 104%
- cell count (LOXIMVI): 94.5%
- cell count (MEL-HO): 95.7%

SMILES: COc1ccc(-c2ccc3c(N4CCOCC4)nc(N4C[C@@H](C)O[C@@H](C)C4)nc3n2)cc1CO + O=C(O)C(=O)Nc1sc2c(c1C(=O)O)CCNC2 [TCS401] (first compound 0.02 µM, partner dose 1.66667 µM)
- cell count (COLO792): 97.2%
- cell count (COLO800): 112%
- cell count (COLO829): 103%
- cell count (G361): 115%
- cell count (IPC-298): 95.2%
- cell count (IST-MEL1): 104%
- cell count (LB2518-MEL): 109%
- cell count (LOXIMVI): 96%
- cell count (MEL-HO): 87.2%
- cell count (MZ2-MEL): 90.5%

SMILES: O=C1NC(=O)/C(=C/c2ccc(-c3ccc(F)cc3O)o2)S1 + O=c1cc(-c2cccc3c2Sc2ccccc2S3)oc(N2CCOCC2)c1 [KU55933] (first compound 1 µM, partner dose 1 µM)
- cell count (COLO792): 99.7%
- cell count (COLO800): 125%
- cell count (COLO829): 132%
- cell count (G361): 76.2%
- cell count (IPC-298): 102%
- cell count (IST-MEL1): 108%
- cell count (LB2518-MEL): 106%
- cell count (LOXIMVI): 110%
- cell count (MEL-HO): 95%
- cell count (MZ2-MEL): 96.6%

SMILES: O=S(=O)(c1ccccc1)N(CC(F)(F)F)c1ccc(C(O)(C(F)(F)F)C(F)(F)F)cc1 + COc1cc(N2CCC(N3CCN(C)CC3)CC2)ccc1Nc1ncc(Cl)c(Nc2ccccc2S(=O)(=O)C(C)C)n1 [NVP-TAE684] (first compound 1.4 µM, partner dose 0.08 µM)
- cell count (COLO792): 103%
- cell count (COLO800): 93.4%
- cell count (COLO829): 96.3%
- cell count (G361): 93.3%
- cell count (IPC-298): 93.8%
- cell count (IST-MEL1): 101%
- cell count (LB2518-MEL): 91.6%
- cell count (LOXIMVI): 98.8%
- cell count (MEL-HO): 97.1%
- cell count (MZ2-MEL): 99.7%

SMILES: COc1ccc(COc2ccc(Cc3cnc(N)nc3N)cc2OC)cc1 + CC(C)CCN1c2nc(Nc3cc(F)c(O)c(F)c3)ncc2N(C)C(=O)C1C [BID1870] (first compound 1 µM, partner dose 0.2 µM)
- cell count (COLO792): 95.7%
- cell count (COLO800): 88.7%
- cell count (COLO829): 106%
- cell count (G361): 104%
- cell count (IPC-298): 99.1%
- cell count (IST-MEL1): 118%
- cell count (LB2518-MEL): 85.3%
- cell count (LOXIMVI): 114%
- cell count (MEL-HO): 94.4%

SMILES: COc1ccc(-c2ccc3c(N4CCOCC4)nc(N4C[C@@H](C)O[C@@H](C)C4)nc3n2)cc1CO + COc1cc(N2CCC(N3CCN(C)CC3)CC2)ccc1Nc1ncc(Cl)c(Nc2ccccc2S(=O)(=O)C(C)C)n1 [NVP-TAE684] (first compound 0.02 µM, partner dose 0.08 µM)
- cell count (COLO792): 88.7%
- cell count (COLO800): 106%
- cell count (COLO829): 94.6%
- cell count (G361): 89.6%
- cell count (IPC-298): 103%
- cell count (IST-MEL1): 96%
- cell count (LB2518-MEL): 94.8%
- cell count (LOXIMVI): 112%
- cell count (MEL-HO): 69.6%
- cell count (MZ2-MEL): 90.3%

SMILES: Cc1cc([N+](=O)[O-])ccc1NS(=O)(=O)c1cc(Cl)ccc1Cl + CC(C)CCN1c2nc(Nc3cc(F)c(O)c(F)c3)ncc2N(C)C(=O)C1C [BID1870] (first compound 1 µM, partner dose 0.2 µM)
- cell count (COLO792): 81.6%
- cell count (COLO800): 83.5%
- cell count (COLO829): 109%
- cell count (G361): 78.9%
- cell count (IPC-298): 89.8%
- cell count (IST-MEL1): 81.8%
- cell count (LB2518-MEL): 114%
- cell count (LOXIMVI): 96.2%
- cell count (MEL-HO): 90.9%

SMILES: O=C(O)C(=O)Nc1sc2c(c1C(=O)O)CCNC2 + c1cc(-c2cnn3cc(-c4ccc(OCCN5CCCCC5)cc4)cnc23)ccn1 [Dorsomorphin] (first compound 1.66667 µM, partner dose 0.4 µM)
- cell count (COLO792): 87.3%
- cell count (COLO800): 126%
- cell count (COLO829): 87.7%
- cell count (G361): 96.5%
- cell count (IPC-298): 101%
- cell count (IST-MEL1): 101%
- cell count (LB2518-MEL): 106%
- cell count (LOXIMVI): 100%
- cell count (MEL-HO): 86.1%
